Among the data in the supplement of paper PMC8813932 are log2 surviving fraction values, retold here.

Molecules are shown by their SMILES. Structures can show the parent of a compound that is named as a salt. This is one part of the list. Repeats are few or missing, and single values can be far off.

This test relates to Ov4Carbo. The experiment in a line: log2 surviving fraction relative to plate median (drug vs vehicle, or drug+dl922-947 vs dl922-947 alone); ovarian cancer lines: OVCAR4 is platinum-sensitive while Ov4Cis resists cisplatin and Ov4Carbo carboplatin; higher = more cell survival. Conditions: dl922-947 oncolytic adenovirus co-treatment: MOI 10; compound concentration: 10 uM; 192 h.
For the molecule `Clc1ccc(CSC(Cn2ccnc2)c2ccc(Cl)cc2Cl)cc1` (centres undefined) [Sulconazole Nitrate], the log2 surviving fraction is -1.02.

Consider `CC(C)(O)c1ccccc1CC[C@@H](SCC1(CC(=O)O)CC1)c1cccc(/C=C/c2ccc3ccc(Cl)cc3n2)c1` [Montelukast Sodium], for which the log2 surviving fraction was -1.18.

Regarding `CC(C)CN(C[C@@H](O)[C@H](Cc1ccccc1)NC(=O)O[C@H]1CO[C@H]2OCC[C@H]21)S(=O)(=O)c1ccc(N)cc1` [Darunavir Ethanolate (Prezista)], the log2 surviving fraction was -0.288.

With `CN1C[C@@H]2C[C@H]1CN2c1cc2c(cc1F)c(=O)c(C(=O)O)cn2C1CC1` [Danofloxacin Mesylate], the log2 surviving fraction was -1.56.

Turning to `CC(=O)O[C@H]1C(=O)[C@@]2(C)[C@H]([C@H](OC(=O)c3ccccc3)[C@]3(O)C[C@H](OC(=O)[C@H](O)[C@@H](NC(=O)c4ccccc4)c4ccccc4)C(C)=C1C3(C)C)[C@]1(OC(C)=O)CO[C@@H]1C[C@@H]2O` [Paclitaxel (Taxol)], the log2 surviving fraction was -4.96.

In the case of `CC[C@]1(O)C[C@@H]2CN(CCc3c([nH]c4ccccc34)[C@@](C(=O)OC)(c3cc4c(cc3OC)N(C)[C@H]3[C@@](O)(C(=O)OC)[C@H](OC(C)=O)[C@]5(CC)C=CCN6CC[C@]43[C@@H]65)C2)C1` [Vinblastine], the log2 surviving fraction turned out to be 0.445.

As for `COC(=O)C1=C(C)NC(C)=C(C(=O)OCC(C)C)C1c1ccccc1[N+](=O)[O-]` (centres undefined) [Nisoldipine (Sular)], the log2 surviving fraction is -0.438.

Consider `Nc1c2c(nc3ccccc13)CCCC2` [Tacrine HCl], for which the log2 surviving fraction is -1.02.

In the case of `COc1cc(C(C)=O)ccc1OCCCN1CCC(c2noc3cc(F)ccc23)CC1` [Iloperidone (Fanapt)], the log2 surviving fraction was -0.13.
